# About 230 (0.21%) of roughly 110,000 compounds showed an effect of 50% or more. Some of the results follow.
# Biological target: DPAP1 (Plasmodium falciparum, UniProt Q8IIJ9)
# Test: primary screen, percent inhibition; read by cleavage of a fluorogenic dipeptide substrate; higher = more effect of the substance
# Design: species or system P. falciparum D10 trophozoite lysates; single well
# 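Also: 30 min substrate incubation versus DMSO and 10 µM JCP410 controls.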
# Chain of DPAP1 (Q8IIJ9 whole entry, looked up): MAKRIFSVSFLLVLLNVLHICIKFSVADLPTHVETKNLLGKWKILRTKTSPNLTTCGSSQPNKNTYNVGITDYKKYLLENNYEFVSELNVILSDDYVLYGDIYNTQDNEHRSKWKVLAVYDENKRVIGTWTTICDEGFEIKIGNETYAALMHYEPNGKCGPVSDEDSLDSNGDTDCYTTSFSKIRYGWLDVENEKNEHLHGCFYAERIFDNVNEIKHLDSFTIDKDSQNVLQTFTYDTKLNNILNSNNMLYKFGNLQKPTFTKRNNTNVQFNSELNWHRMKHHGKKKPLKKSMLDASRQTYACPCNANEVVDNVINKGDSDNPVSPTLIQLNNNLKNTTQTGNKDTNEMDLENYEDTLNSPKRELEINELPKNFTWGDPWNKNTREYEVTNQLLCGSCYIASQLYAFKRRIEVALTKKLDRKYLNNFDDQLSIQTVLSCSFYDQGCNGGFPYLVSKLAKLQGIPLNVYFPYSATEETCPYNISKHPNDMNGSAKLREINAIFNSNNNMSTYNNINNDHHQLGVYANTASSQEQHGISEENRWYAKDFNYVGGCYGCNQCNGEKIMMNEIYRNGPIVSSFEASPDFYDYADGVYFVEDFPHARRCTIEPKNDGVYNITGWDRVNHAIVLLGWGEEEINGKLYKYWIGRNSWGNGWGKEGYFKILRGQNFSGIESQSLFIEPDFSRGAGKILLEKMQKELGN
row,SMILES,% Inhibition @ 10 uM [%]
1,COc1ccc(-c2noc(CSc3nnc(C)n3-c3ccccc3)n2)cc1,-0.45
2,C/N=C1\S/C(=C\c2cccn2-c2ccccc2)C(=O)N1C,-2.19
3,O=C(COc1ccccc1Cl)Nc1ccccc1NC(=O)COc1ccccc1Cl,-4.82
4,Cc1sc(-c2nc3ccccc3nc2O)cc1-c1ccccc1,-0.828
5,CC(C)CNC(=O)c1cc(-c2ccc(O)cc2)on1,-1.28
6,CCCNc1ncnc2sc3c(c12)CCC(C)C3 (stereo not shown),-1.6
7,CCN(CCN(C)C)Cc1c(Cl)cccc1Cl,-0.292
8,COc1ccc(-c2[nH]nc3nc(-c4ccccc4Cl)cc(C(=O)O)c23)cc1,-4.8
9,Nc1ncc(Br)cc1S(=O)(=O)NCCC(=O)NCCCc1ccccc1,-6.65
10,C[C@@H](Cc1ccccc1)NC(=O)N[C@@H](C)Cc1ccccc1,-9.13
11,C=CCn1c(SCC(=O)NCCO)nc2ccccc2c1=O,-7.34
12,O=C(O)C1CC=CCC1C(=O)N1CCN(C/C=C/c2ccccc2)CC1 (stereo not shown),-3.71
13,O=C(Nc1cccc(-c2nc3ccccc3s2)c1)C(c1ccccc1)c1ccccc1,-2.47
14,CCSc1ncc(Cl)c(C(=O)Nc2nc3ccc(C)cc3s2)n1,2.19
15,Cc1cc(C)c2c(=O)n(CC(=O)N3CCN(C4CCCCC4)CC3)sc2n1,15.6
16,COc1ccc(C2CC(=O)N(C)C3=C2C(=O)CC(C)(C)C3)cc1 (stereo not shown),-4.06
17,CCN(CC)CCOc1nnc(-c2ccc(OC)cc2)c2ccccc12,21.6
18,Cc1ccc(C2=NN=C(NC(=O)CSc3nncn3C)SC2)cc1,6.82
19,CCOC(=O)N1CCN(C(=O)c2cc(-c3ccccc3)[nH]n2)CC1,-2.13
20,O=C(Nc1cc([N+](=O)[O-])ccc1Cl)c1ccc(Cl)cc1,-4.4
21,COC(=O)C1=C(O)/C(=C\c2cc(C)n(-c3ccc(C)c(C)c3)c2C)N=C1C,3.43
22,Cc1nn(CC(=O)NC2CC2)c(=O)c2nn(-c3ccccc3)c(C)c12,-2.15

row,SMILES,% Inhibition @ 10 uM [%]
1,COc1ccc(-c2noc(CC(=O)NC(C)CCc3ccccc3)n2)cc1 (stereo not shown),1.1
2,COC(=O)c1[nH]c2c(c1C)C(=O)CC(c1ccc(Cl)cc1)C2 (stereo not shown),-1.18
3,O=C(Nc1nonc1-c1ccccc1)c1ccccc1F,2.29
4,Cn1c(=O)c2c(nc(Cl)n2Cc2ccccc2Br)n(C)c1=O,4.86
5,O=c1c2nccnc2nc(SCc2cc(=O)n3cc(Cl)ccc3n2)n1CCc1ccccc1,9.61
6,C=C(C)Cn1c(NCCCN2CCOCC2)nc2c1c(=O)[nH]c(=O)n2C,1.96
7,CN1CCC(N(C)C2CC(=O)N(c3ccccc3)C2=O)CC1 (stereo not shown),4.33
8,Cc1ccccc1C(O)c1cccnc1 (stereo not shown),2.01
9,CN(C)C(=O)N1CCCC(C(=O)NC2CCCCC2)C1 (stereo not shown),-1.34
10,Cn1c(=O)[nH]c(=O)c2c1nc(N1CCCCCC1)n2CCC#N,0.35
11,CCN1C(=O)N/C(=C/c2cn(CC(=O)O)c3ccccc23)C1=O,-1.42
12,O=c1cc(O)nc(SCc2ccccc2)n1-c1ccc(F)cc1,-4.67
13,CC1CN(Cc2cccs2)CC(C)O1 (stereo not shown),-3.27
14,O=C(O)c1ccn(Cn2cnc3ccccc32)n1,4.94
15,Cc1nn(CC(=O)NCc2cccnc2)c(=O)c2nn(-c3ccccc3)c(C)c12,-4.38
16,O=C(CC1NC2CCCCC2NC1=O)Nc1ccc(Oc2ccccc2)cc1 (stereo not shown),2.64
17,Cc1ccc(NC(=O)c2cc(C(=O)Nc3ccc(C)c(C)c3)n(C)n2)cc1C,-0.0648
18,CCOC(=O)c1cc2c(=O)n3ccccc3nc2n(C)/c1=N\C(=O)c1cc(OC)c(OC)c(OC)c1,0.457
19,CC/N=C1/SC(CC(=O)Nc2ccc(C(F)(F)F)cc2)C(=O)N1CC (stereo not shown),-17
20,COc1cccc(C(=O)C2=C(O)C(=O)N(c3ccccn3)C2c2cccc(Br)c2)c1 (stereo not shown),-1.26
21,COc1ccc(CC(=O)Nc2sc3c(c2C(=O)Nc2ccccc2OC)CCC3)cc1,-8.92
22,Cc1nc(S)c(C#N)c(C)c1CC(=O)c1ccc(Br)cc1,3.92

row,SMILES,% Inhibition @ 10 uM [%]
1,CC(C)Cn1cc(C(=O)NC(C)c2ccc3c(c2)OCCO3)c2c3ccccc3n(C)c2c1=O (stereo not shown),-0.591
2,COc1ccc(N(CC(=O)NC2CCCC2)S(=O)(=O)c2ccc(C)cc2)c(OC)c1,-3.49
3,CCOc1ccc(CCNc2nc3ccccc3n3c(CC)nnc23)cc1OCC,-2.78
4,O=C(Nc1ccc(S(=O)(=O)N2CCCCCC2)cc1)c1cccs1,2.38
5,COc1ccc(CC(=O)Nc2nc3c(s2)C(=O)CC(C)(C)C3)cc1OC,-15.4
6,COC(=O)c1c(C)oc2ccc(OCc3cc(C)ccc3C)cc12,6.22
7,O=C(Cn1cnc2c(nc3n2CCCCC3)c1=O)NCCN1CCOCC1,5.27
8,O=C(CCNC(=O)Cn1ccc2ccccc2c1=O)NCC1CCCC1c1ccccc1 (stereo not shown),-5.17
9,COc1nc(-c2ccc(C)cc2)ccc1-c1noc(-c2cccnc2)n1,-1.33
10,N#CC1=C(N)N(c2ccccc2)C2=C(C(=O)CCC2)C1c1cccs1 (stereo not shown),0.751
11,C=CCn1c(CNC(=O)CCC)nc2ccccc21,4.69
12,O=S(=O)(NCC1OCCc2ccccc21)c1ccccc1 (stereo not shown),-0.902
13,N#Cc1c(NC(=O)CN2CCOCC2)sc2c1CCC2,-1.06
14,O=C1CN(c2ccc(Cl)cc2)C(=O)N1,-6.32
15,COc1ccc(/C=C2\N=C(c3ccc(C(C)(C)C)cc3)OC2=O)c(OC)c1OC,-8.16
16,C=CCOC(=O)C1=C(C)N=C(C)/C(=C(/O)OCC=C)C1c1ccc(O)c(OCC)c1 (stereo not shown),1.52
17,NS(=O)(=O)c1ncn(Cc2ccccc2)n1,4.42
18,C(#Cc1ccccc1)CN1CCN(CC#Cc2ccccc2)CC1,-3.42
19,COc1ccccc1C(=O)Nc1c(C(=O)c2ccc(F)cc2)oc2ccccc12,0.628
20,O=c1/c(=C/c2ccccc2)sc2nc3ccccc3n12,1.55
